In ChEMBL document CHEMBL4888484, “Replenishing the malaria drug discovery pipeline: Screening and hit evaluation of the MMV Hit Generation Library 1 (HGL1) against asexual blood stage Plasmodium falciparum ,using a nano luciferase reporter read-out” (2022):
About 540 (0.36%) of roughly 150,000 compounds showed an effect of 50% or more. The list shows a part of the results.

Test system: Plasmodium falciparum
Test: Primary screen in NF54 nanoGlo assay, in single point, at 2uM, 72h; a lower Z score goes with more inhibition
Type: functional, Erythrocyte
Conditions: timepoint 72 hour

Row | SMILES | % Inhibition | Z score
1 | CCCc1[nH]ncc1C(=O)NCCN1C(=O)Cc2ccccc21 | -12% | 2.22
2 | COc1cc(=O)n2c(c1C(=O)NCCCn1ccnc1)CCNCC2 | 5% | -0.7
3 | Cc1ncsc1C(=O)Nc1ccnc(Oc2ccc(F)cc2F)c1 | -1% | 0.1
4 | CN(C(=O)[C@H]1CCO[C@@H]1c1cccnc1)c1ccn(C)n1 | -7% | 1.42
5 | CCOc1ccc(C(=O)N2C[C@@H](CO)C[C@@H](CN3CCOCC3)C2)o1 | -16% | 3.18
6 | COc1ccc(CC(=O)N[C@@]2(C#N)CCc3ccccc3C2)cc1OC(F)F | -2% | 0.31
7 | N#Cc1c(N(C(=O)c2ccccc2C(F)(F)F)C(=O)c2ccccc2C(F)(F)F)oc(-c2ccco2)c1-c1ccco1 | 16% | -1.85
8 | Cc1nn(C)c(C)c1CN(C)c1nc2c(s1)c(C)nn2C | -7% | 0.89
9 | CCc1ccc(CNC(=O)c2noc(-c3ccc(C)cc3)n2)cc1 | -8% | 0.7
10 | CCn1ccnc(Oc2ccc(-n3ncc4ccccc43)cc2)c1=O | -5% | 0.91
11 | C[C@@H](c1ccccc1)N(C(=O)c1cnn(C2CCC2)c1)c1ccccn1 | -2% | 0.38
12 | CN(CCN1C(=O)NC(C)(C)C1=O)C1Cc2ccccc2C1 | -2% | 0.39
13 | Cc1nc([C@H](C)NC(=O)c2cnc(C3CC3)nc2)cs1 | -5% | 0.55
14 | O=C1NC2(CCCC2)C(=O)N1CCOc1cccc(Cl)c1 | -5% | 0.85
15 | Cc1ccc(-c2nc(CC(N)=O)n[nH]2)n1C(F)F | -16% | 1.87
16 | C[C@@H]1CN(C(=O)NCC2CCCCC2)CC[C@]1(C)O | -7% | 1.22
17 | Cc1nc(-c2ccc(N3CC(C(N)=O)CCC3C)nc2)[nH]c(=O)c1C (stereo not given) | -6% | 1.05
18 | COc1cccc2c(C(=O)N3COCC[C@H]3c3ccccc3)cnn12 | 2% | -0.46
19 | CCN(CCn1cccn1)CC(=O)Nc1ccn(C)n1 | -12% | 2.28
20 | C[C@H]1CN(c2cc(NCCO)ncn2)CC(=O)N1C | -8% | 0.98
21 | Cc1ccc([C@H](C(=O)Nc2ccc(C(=O)N3CCCC3)cc2C)N(C)C)cc1 | -17% | 2.13
22 | CC(=O)Nc1c(-c2ccc(F)cc2)c(C)nn1-c1ccc(C(=O)NCc2ccco2)cc1 | 3% | -0.32

Row | SMILES | % Inhibition | Z score
23 | CC(=O)NC1CCN(c2cc(C)c3cc4c(cc3n2)CCC4)CC1 | 24% | -3.1
24 | Cc1ccc(N2CCCN(Cc3cccc(Cl)c3)C2=O)c(NC(=O)Cc2ccc(F)cc2)c1 | -6% | 0.81
25 | CC(C)c1oncc1NC(=O)[C@@H]1CCCc2c(O)cccc21 | -8% | 1.28
26 | CN(CC#CCNC(=O)CN(C)S(C)(=O)=O)Cc1ccccc1 | 7% | -0.76
27 | CCN(c1cccnc1)S(=O)(=O)c1cc(Cl)cnc1N | -7% | 0.9
28 | Cc1n[nH]c(N2CCN(S(=O)(=O)c3c(C)cccc3F)CC2)n1 | -10% | 1.33
29 | O=C(c1cccc(C(F)(F)F)c1)N1CCC[C@@](CO)(CCc2ccccc2)C1 | -4% | 0.49
30 | CN1CCC[C@@H]1COc1ncc(C#N)cc1Cl | 8% | -1.07
31 | Cc1cc(C)n(-c2cc(N3CC(C(=O)Nc4onc5c4CCCC5)C3)ncn2)n1 | 14% | -1.85
32 | COc1cc(CNc2ccc(-c3cnc(C4CC4)o3)cc2)ccc1O | 6% | -0.59
33 | COc1cccc(CN(CCS(=O)(=O)N2CCNCC2)S(=O)(=O)c2cccs2)c1 | -12% | 1.38
34 | O=S(=O)(CC1CCCC1)NCc1nnc2n1CCCC2 | 0% | -0.02
35 | Cc1ccc(OC[C@H]2c3ccsc3CCN2C(=O)CN(CC(C)C)S(=O)(=O)c2ccc(C)cc2)cc1 | -11% | 1.48
36 | COc1ccc(CCNC(=O)Nc2c(-c3ccc(OC)cc3)nn(-c3ccc(C(F)(F)F)cc3)c2N)cc1 | -4% | 0.59
37 | O=S(=O)(CC1CCCC1)NCC[C@H]1CCCOC1 | -9% | 1.54
38 | O=C(COc1ccc(F)cc1)N1CC(n2nccn2)C1 | 5% | -0.67
39 | Cc1oncc1C(=O)N1C2C=CCC1CC2 (stereo not given) | -4% | 0.51
40 | CC1CN(C(=O)Cc2csc(C(C)C)n2)C(C)CO1 (stereo not given) | 4% | -0.6
41 | CCOc1cccc2[nH]cc(CCNC(=O)N3CCC[C@H](OC)C3)c12 | 10% | -1.3
42 | COc1ccccc1CCNC(=O)c1ccc2c(c1)OCCO2 | -14% | 2.04
43 | CCN(CC)c1onc(-c2ccccc2)c1CN(Cc1ccccc1)C(C)=O | 2% | -0.36
44 | CCNC(=O)O[C@@H]1CO[C@H]2[C@@H]1OC[C@@H]2Nc1nccc(-c2ccc(N(C)C)cc2)n1 | -5% | 0.75

Row | SMILES | % Inhibition | Z score
45 | CC(C)n1cnnc1C[C@H]1CCN(S(=O)(=O)Cc2ccccc2F)C1 | 0% | 0.07
46 | Cc1cccc(-c2cc3n(n2)CCCN(C(=O)[C@H](C)Oc2ccccc2)C3)c1 | -4% | 0.72
47 | COc1ccccc1N1CCN(c2nc(Nc3ccc(C)cc3C)c3nccnc3n2)CC1 | -9% | 1.59
48 | CC1COC(c2ccccc2)C(C)N1C(=O)CCc1cnn(C)c1 (stereo not given) | -11% | 1.03
49 | Cc1noc(-c2cccnc2NCc2ccnc(OC(C)C)c2)n1 | -17% | 1.9
50 | O=C(c1cc(-c2ccccc2)n[nH]1)N1CCC(Oc2ccccn2)CC1 | -7% | 1.34
51 | C[C@@H](c1ncc(C(C)(C)C)o1)n1ccc(C(F)(F)F)n1 | -2% | 0.46
52 | Cc1cc(NC(=O)CCN2CCCN(C)CC2)no1 | -3% | 0.38
53 | CN(Cc1ccccc1)c1ncccc1CNc1cc(C(N)=O)ccn1 | 1% | -0.08
54 | COCCn1cc(NC(=O)C(F)=CC2CCCCC2)cn1 | -34% | 5.1
55 | Cc1cccc(OC(=O)c2cc(-c3ccc(C)c(C)c3)on2)c1 | 25% | -2.87
56 | Cc1nc(C(=O)NC[C@]2(O)CCCC2(C)C)co1 | -1% | 0.09
57 | CN1CCCC[C@H]1C(=O)NCc1csc(-c2ccn(C)n2)n1 | 3% | -0.35
58 | CC1(C)C[C@@H](c2nccn2CCCc2nnn[nH]2)CCO1 | 8% | -1.06
59 | COC(=O)CCN(C(=O)c1cccc(C)c1)c1nc2ccccc2o1 | -16% | 1.47
60 | Cc1cccc(-c2noc(CCN(CC(C)C)C(=O)COCc3ccccc3)n2)c1 | -13% | 1.51
61 | Cc1ccc(C)c([C@H](C)NC(=O)CN2CCCN(c3ccnc(C)c3)CC2)c1 | -12% | 2.13
62 | O=C1CN(C(=O)Cn2cnc3ccc(Cl)cc3c2=O)c2ccccc2N1 | -15% | 2.38
63 | CC(C)NC(=O)[C@@]1(OCc2ccccc2)CC(OCc2ccc(F)cc2F)[C@H](O)[C@H](O)C1 (stereo not given in full) | 2% | -0.37
64 | Cc1ncsc1-c1ccc(CNC(=O)c2[nH]c(=O)[nH]c2C)cc1 | -13% | 2.01
65 | Cc1nc(-c2ccccc2)c(C(=O)N(C)Cc2snnc2C)s1 | -10% | 1.44
66 | COc1cccc(NC(=O)Nc2ccc(-c3cc4ccccc4[nH]3)cc2)c1 | -6% | 0.98

Row | SMILES | % Inhibition | Z score
67 | Nc1nc(CCCNc2nc(-c3ccccc3)no2)cs1 | -9% | 1.2
68 | Cc1cc(C)c2c(c1)-c1c(ssc1=S)C(C)(C)N2C(=O)CN1CCOCC1 | -1% | 0.15
69 | O=C(NCc1cc2n(n1)CCCN(Cc1ccc(Cl)cc1F)C2)C1CCC1 | 1% | -0.13
70 | CCc1ccc(OCC(=O)OCCN2CCCC2=O)cc1 | 3% | -0.49
71 | O=C(CN1CCCC1=O)N1CCN(Cc2ccccc2)CC1 | -6% | 1.03
72 | CC(C)=CCN1CCN(C[C@H](C)O)CC1 | -14% | 1.23
73 | O=C1N[C@@H](C2CC2)C(=O)N[C@H]1CC1CCCCC1 | 6% | -1.09
74 | CN(C)CCN(C)C(=O)Nc1ncccc1OCC1CCCCC1 | 8% | -0.98
75 | O=C(NCCOc1ccccc1Cl)N1CCC(n2cccn2)CC1 | -4% | 0.71
76 | CCc1nc(-c2ccc(-c3noc(-c4cccc(OC)c4OC)n3)cc2)cs1 | 2% | -0.17
77 | N#CCc1ccc(NCc2cc(-c3ccccc3)[nH]n2)cc1 | 4% | -0.51
78 | Cc1cccc(NCCN2C(=O)Cc3ccccc32)n1 | 0% | 0.01
79 | COc1ccc(NC(C)=O)cc1NCc1ccc(C2CC2C)o1 (stereo not given) | 3% | -0.39
80 | Cn1cc(S(=O)(=O)N2CCCCC2)cc1C(=O)Nc1ccc2c(c1)OCO2 | -5% | 0.66
81 | OC[C@H]1CCCN(CCNCc2ccc(Cl)s2)C1 | 1% | -0.23
82 | CCC(=O)N1CC(=O)N(c2cccc(OC)c2)C[C@@H]1Cc1ccccc1 | -7% | 0.67
83 | Cc1ccsc1-c1c(-c2ccccc2)ncn1CCN1CCC[C@H](CO)C1 | -13% | 1.26
84 | CC(C)OC1(C(=O)N2CC[C@H](O)[C@@H](C3CCCC3)C2)CCOC1 (stereo not given in full) | -3% | 0.48
85 | O=C1CN(CCCO)C(=O)CCc2ccc(cc2)Oc2cccc(c2)CO[C@H]2CCN(C(=O)c3ncoc3C3CC3)C[C@@H]2N1 | -5% | 0.88
